Data as given in the supplement of paper PMC6089552.
Out of some 3,200 compounds screened, about 300 (9.4%) showed activity. The list shows a part of the results, in another mix than the full data.

System: A673/TR/shEF
Experiment: cell viability (LOESS-normalised, relative to median of negative controls) (log2 ratio); higher = more viable cells (less compound effect), active = hit call of the paper (over 3 MAD below the median)
Conditions: treatment time: 72 h
Procedure, shortened: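 A673/TR/shEF Ewing sarcoma cells were plated at 1,500 per well in 384-well plates and cultured with or without doxycycline, added 24 h before compounds, to induce EWS-FLI1 shRNA knockdown. Library compounds at two or more concentrations, alongside DMSO controls, were applied for three days. Cell viability was measured by CellTiter-Glo luminescence on an Envision reader. Readings were LOESS-corrected per plate, divided by the median of negative controls and log2-transformed, and hits were wells lying at least three median absolute deviations from the median of all screened wells.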

[1] = 0.926 µM, library screen: screen3, EWS-FLI1 expression: high (no doxycycline)
[2] = 2.8 µM, library screen: screen3, EWS-FLI1 expression: high (no doxycycline)
[3] = 8.3 µM, library screen: screen3, EWS-FLI1 expression: high (no doxycycline)
[4] = 25 µM, library screen: screen3, EWS-FLI1 expression: high (no doxycycline)
[5] = 0.25 µM, library screen: screen1, EWS-FLI1 expression: high (no doxycycline)
[6] = 0.25 µM, library screen: screen1, EWS-FLI1 expression: low (doxycycline-induced shRNA knockdown)
[7] = 2.5 µM, library screen: screen1, EWS-FLI1 expression: high (no doxycycline)
[8] = 2.5 µM, library screen: screen1, EWS-FLI1 expression: low (doxycycline-induced shRNA knockdown)
[9] = 0.103 µM, library screen: screen3, EWS-FLI1 expression: high (no doxycycline)
[10] = 0.103 µM, library screen: screen3, EWS-FLI1 expression: low (doxycycline-induced shRNA knockdown)
[11] = 0.25 µM, library screen: screen2, EWS-FLI1 expression: high (no doxycycline)
[12] = 0.25 µM, library screen: screen2, EWS-FLI1 expression: low (doxycycline-induced shRNA knockdown)
[13] = 0.308 µM, library screen: screen3, EWS-FLI1 expression: high (no doxycycline)
[14] = 0.308 µM, library screen: screen3, EWS-FLI1 expression: low (doxycycline-induced shRNA knockdown)
[15] = 0.926 µM, library screen: screen3, EWS-FLI1 expression: low (doxycycline-induced shRNA knockdown)
[16] = 2.5 µM, library screen: screen2, EWS-FLI1 expression: high (no doxycycline)
[17] = 2.5 µM, library screen: screen2, EWS-FLI1 expression: low (doxycycline-induced shRNA knockdown)
[18] = 2.8 µM, library screen: screen3, EWS-FLI1 expression: low (doxycycline-induced shRNA knockdown)
[19] = 8.3 µM, library screen: screen3, EWS-FLI1 expression: low (doxycycline-induced shRNA knockdown)
[20] = 25 µM, library screen: screen3, EWS-FLI1 expression: low (doxycycline-induced shRNA knockdown)

Compound: Cn1cnc2c(F)c(Nc3ccc(Br)cc3Cl)c(C(=O)NOCCO)cc21
- cell viability (log2) [1]: active: -0.189
- cell viability (log2) [2]: active: -0.222
- cell viability (log2) [3]: active: -0.293
- cell viability (log2) [4]: active: -0.303

Compound: CC(=O)O[C@H]1CC[C@@]2(C)C(CC[C@]3(C)C2CC=C2C4CC(C)(C)CC[C@]4(C)CCC23C)C1(C)C (some centres not stated)
- cell viability (log2) [5]: inactive: 0.05
- cell viability (log2) [6]: inactive: 0.112
- cell viability (log2) [7]: inactive: 0.0854
- cell viability (log2) [8]: inactive: 0.111

Compound: NCCc1ccc(O)c(O)c1
- cell viability (log2) [9]: inactive: 0.0229
- cell viability (log2) [10]: inactive: 0.12
- cell viability (log2) [5]: inactive: 0.134
- cell viability (log2) [6]: inactive: 0.13
- cell viability (log2) [11]: inactive: 0.116
- cell viability (log2) [12]: inactive: 0.0773
- cell viability (log2) [13]: inactive: 0.0305
- cell viability (log2) [14]: inactive: 0.0741
- cell viability (log2) [1]: inactive: 0.024
- cell viability (log2) [15]: inactive: 0.0268
- cell viability (log2) [7]: inactive: 0.261
- cell viability (log2) [8]: inactive: 0.195
- cell viability (log2) [16]: inactive: 0.104
- cell viability (log2) [17]: inactive: 0.0824
- cell viability (log2) [2]: inactive: 0.0629
- cell viability (log2) [18]: inactive: -0.00804
- cell viability (log2) [3]: inactive: -0.0412
- cell viability (log2) [19]: inactive: 0.0864
- cell viability (log2) [4]: inactive: 0.0364
- cell viability (log2) [20]: inactive: 0.105

Compound: C=C1c2cc(OC)ccc2NC(=O)N1c1ccccc1
- cell viability (log2) [5]: inactive: 0.0622
- cell viability (log2) [6]: inactive: 0.09
- cell viability (log2) [7]: inactive: 0.104
- cell viability (log2) [8]: inactive: 0.0838

Compound: NC(N)=NC(N)=Nc1ccccc1
- cell viability (log2) [5]: inactive: 0.0892
- cell viability (log2) [6]: inactive: -0.00769
- cell viability (log2) [11]: inactive: 0.168
- cell viability (log2) [12]: inactive: 0.0794
- cell viability (log2) [7]: inactive: 0.142
- cell viability (log2) [8]: inactive: 0.0402
- cell viability (log2) [16]: inactive: 0.19
- cell viability (log2) [17]: inactive: 0.0668

Compound: CC(C)c1c(O)ccc2c1CCC1[C@@](C)(C=O)CCC[C@]21C (some centres not stated)
- cell viability (log2) [5]: inactive: 0.0641
- cell viability (log2) [6]: inactive: 0.0754
- cell viability (log2) [7]: inactive: 0.163
- cell viability (log2) [8]: inactive: 0.289

Compound: CC(C)C[C@H](NC(=O)OCC1c2ccccc2-c2ccccc21)C(=O)O
- cell viability (log2) [5]: inactive: 0.0635
- cell viability (log2) [6]: inactive: 0.0579
- cell viability (log2) [7]: inactive: 0.116
- cell viability (log2) [8]: inactive: -0.00318

Compound: COc1cc(OC)c(C2NC(=S)NC(C)=C2C(=O)Nc2ccccc2Cl)cc1OC (configuration not stated)
- cell viability (log2) [5]: inactive: 0.0713
- cell viability (log2) [6]: inactive: 0.0952
- cell viability (log2) [7]: inactive: 0.0303
- cell viability (log2) [8]: inactive: 0.0128

Compound: O=C(Cc1ccccc1)NO
- cell viability (log2) [5]: inactive: 0.111
- cell viability (log2) [6]: inactive: 0.0668
- cell viability (log2) [7]: inactive: 0.126
- cell viability (log2) [8]: inactive: 0.0445

Compound: CCCCCC(O)CCCC(=O)O (configuration not stated)
- cell viability (log2) [11]: inactive: 0.202
- cell viability (log2) [12]: inactive: 0.058
- cell viability (log2) [16]: inactive: 0.124
- cell viability (log2) [17]: inactive: 0.143

Compound: CC(C)CCC[C@@H](C)[C@H]1CC[C@H]2[C@@H]3C[C@@H](O)[C@@]4(O)C[C@@H](O)CC[C@]4(C)[C@H]3CC[C@]12C
- cell viability (log2) [5]: inactive: 0.0995
- cell viability (log2) [6]: inactive: 0.0108
- cell viability (log2) [7]: inactive: 0.0184
- cell viability (log2) [8]: inactive: -0.248

Compound: Nc1ncnc2c1ncn2C1CCCC1
- cell viability (log2) [11]: inactive: 0.222
- cell viability (log2) [12]: inactive: 0.00723
- cell viability (log2) [16]: inactive: 0.162
- cell viability (log2) [17]: inactive: 0.101

Compound: CC(=O)OCC(=O)[C@@]1(O)CC[C@H]2[C@@H]3CCC4=CC(=O)C=C[C@]4(C)[C@H]3[C@@H](O)C[C@@]21C
- cell viability (log2) [9]: inactive: 0.0212
- cell viability (log2) [10]: inactive: 0.0869
- cell viability (log2) [5]: inactive: 0.0683
- cell viability (log2) [6]: inactive: 0.0239
- cell viability (log2) [13]: inactive: -0.0308
- cell viability (log2) [14]: inactive: -0.0136
- cell viability (log2) [1]: inactive: -0.0423
- cell viability (log2) [15]: inactive: 0.1
- cell viability (log2) [7]: inactive: 0.176
- cell viability (log2) [8]: inactive: -0.0298
- cell viability (log2) [2]: inactive: -0.0346
- cell viability (log2) [18]: inactive: 0.0288
- cell viability (log2) [3]: inactive: -0.0211
- cell viability (log2) [19]: inactive: 0.081
- cell viability (log2) [4]: inactive: -0.0344
- cell viability (log2) [20]: inactive: 0.0787

Compound: C[C@]12CCC(=O)C=C1CC[C@@H]1[C@@H]2[C@@H](O)C[C@@]2(C)[C@H]1CC[C@]2(O)C(=O)COP(=O)(O)O
- cell viability (log2) [5]: inactive: 0.073
- cell viability (log2) [6]: inactive: 0.0336
- cell viability (log2) [7]: inactive: 0.192
- cell viability (log2) [8]: inactive: -0.129

Compound: CCCCOc1ccc(C(=O)CCN2CCCCC2)cc1
- cell viability (log2) [5]: inactive: 0.096
- cell viability (log2) [6]: inactive: 0.13
- cell viability (log2) [7]: inactive: 0.175
- cell viability (log2) [8]: inactive: 0.159

Compound: Cc1ccc(CN2CCN(Cc3c[nH]c4ccccc34)CC2)cc1
- cell viability (log2) [5]: inactive: 0.0521
- cell viability (log2) [6]: inactive: 0.0225
- cell viability (log2) [7]: inactive: 0.104
- cell viability (log2) [8]: inactive: 0.0231

Compound: C=C1C(=O)O[C@H]2[C@H]1CC/C(C)=C/CC[C@@]1(C)O[C@@H]21
- cell viability (log2) (0.025 µM, library screen: screen2, EWS-FLI1 expression: high (no doxycycline)): inactive: 0.165
- cell viability (log2) (0.025 µM, library screen: screen2, EWS-FLI1 expression: low (doxycycline-induced shRNA knockdown)): inactive: 0.0364
- cell viability (log2) [5]: inactive: 0.0979
- cell viability (log2) [6]: inactive: 0.00227
- cell viability (log2) [11]: inactive: 0.159
- cell viability (log2) [12]: inactive: 0.0828
- cell viability (log2) [7]: inactive: 0.0402
- cell viability (log2) [8]: inactive: 0.0512
- cell viability (log2) [16]: inactive: 0.113
- cell viability (log2) [17]: inactive: 0.0795
- cell viability (log2) (25 µM, library screen: screen2, EWS-FLI1 expression: high (no doxycycline)): inactive: 0.0414
- cell viability (log2) (25 µM, library screen: screen2, EWS-FLI1 expression: low (doxycycline-induced shRNA knockdown)): inactive: 0.0351

Compound: COc1cccc(O)c1O
- cell viability (log2) [5]: inactive: 0.0869
- cell viability (log2) [6]: inactive: -0.0542
- cell viability (log2) [7]: inactive: 0.0973
- cell viability (log2) [8]: inactive: 0.197

Compound: CC(=O)O[C@H]1C[C@@H](OC(C)=O)C(C)(C)C2C[C@@H](OC(C)=O)[C@@]3(C)C4=CC(=O)O[C@@H](c5ccoc5)[C@]4(C)CCC3[C@]21C (some centres not stated)
- cell viability (log2) [5]: inactive: 0.0506
- cell viability (log2) [6]: inactive: 0.0595
- cell viability (log2) [7]: active: -0.853
- cell viability (log2) [8]: active: -0.345

Compound: Cn1nnc2c(C(N)=O)ncn2c1=O
- cell viability (log2) [9]: inactive: 0.0436
- cell viability (log2) [10]: inactive: 0.0168
- cell viability (log2) [13]: inactive: 0.0839
- cell viability (log2) [14]: inactive: 0.007
- cell viability (log2) [1]: inactive: 0.0171
- cell viability (log2) [15]: inactive: 0.0628
- cell viability (log2) [2]: inactive: 0.0167
- cell viability (log2) [18]: inactive: 0.034
- cell viability (log2) [3]: inactive: 0.0409
- cell viability (log2) [19]: inactive: 0.0929
- cell viability (log2) [4]: inactive: -0.0728
- cell viability (log2) [20]: inactive: 0.0977

Compound: O=P(O)(O)C(O)c1ccc2ccccc2c1 (configuration not stated)
- cell viability (log2) (0.025 µM, library screen: screen1, EWS-FLI1 expression: high (no doxycycline)): inactive: 0.0997
- cell viability (log2) (0.025 µM, library screen: screen1, EWS-FLI1 expression: low (doxycycline-induced shRNA knockdown)): inactive: 0.0649
- cell viability (log2) [5]: inactive: 0.143
- cell viability (log2) [6]: inactive: -0.0248
- cell viability (log2) [7]: inactive: 0.0554
- cell viability (log2) [8]: inactive: 0.0311
- cell viability (log2) (25 µM, library screen: screen1, EWS-FLI1 expression: high (no doxycycline)): inactive: 0.0292
- cell viability (log2) (25 µM, library screen: screen1, EWS-FLI1 expression: low (doxycycline-induced shRNA knockdown)): inactive: 0.0551

Compound: COc1ccc(CCC(=O)c2c(O)cc(O[C@@H]3O[C@H](CO)[C@@H](O)[C@H](O)[C@H]3O[C@@H]3O[C@@H](C)[C@H](O)[C@@H](O)[C@H]3O)cc2O)cc1O
- cell viability (log2) [5]: inactive: 0.0959
- cell viability (log2) [6]: inactive: 0.0186
- cell viability (log2) [7]: inactive: 0.12
- cell viability (log2) [8]: inactive: -0.113

Compound: C[C@]12CC[C@H](O)CC1=CC[C@@H]1[C@@H]2CC[C@]2(C)C(c3cccnc3)=CC[C@@H]12
- cell viability (log2) [9]: inactive: 0.0559
- cell viability (log2) [10]: inactive: 0.0561
- cell viability (log2) [13]: inactive: 0.0533
- cell viability (log2) [14]: inactive: 0.034
- cell viability (log2) [1]: inactive: 0.0873
- cell viability (log2) [15]: inactive: 0.0578
- cell viability (log2) [2]: inactive: 0.0754
- cell viability (log2) [18]: inactive: 0.0545
- cell viability (log2) [3]: inactive: 0.0366
- cell viability (log2) [19]: inactive: 0.0563
- cell viability (log2) [4]: inactive: -0.00605
- cell viability (log2) [20]: inactive: 0.0808
